The full ranking holds about 5,400 compounds; the median of “IFI” is about 2, and the highest 2% start at about 22. This is one part of the list.

This assay in a line: NOVARTIS: Inhibition Frequency Index (IFI) - the number of HTS assays where a compound showed > 50% inhibition/induction, expressed as a percentage of the number of assays in which the compound was tested. The format is functional.
Regarding `CC(=O)N(C1=C(N2CCOCC2)C(=O)c2ccccc2C1=O)c1ccc(Cl)c(Cl)c1`, the IFI stood at 15.4%. As to `COc1ccc(N2CCN(c3ncnc4sc(C(=O)NCc5cccnc5)c(C)c34)CC2)cc1`, the IFI was 1%.

The molecule `COc1ccc(CN(C=O)/C=C2\Sc3ccccc3C2=O)cc1OC` had an IFI of 0%. For the molecule `C(=NNc1nc2ccccc2[nH]1)c1ccc2c(c1)OCO2`, the IFI is 8.33%.

Molecule `Cc1ccc(C(=O)Nc2ccc(-c3nc4cc5ccccc5cc4[nH]3)cc2)cc1[N+](=O)[O-]` returned an IFI of 9.09%. To `CC(C)OC(=O)NC(Nc1ccccc1)C(Cl)(Cl)Cl` (stereo not given) belongs 0%; to `CC1(C)CC(N=c2cc(-c3ccccc3)oc3ccc(Cl)cc23)CC(C)(C)N1`, 11.4%. Turning to `CC[C@]1(C2OC(C3O[C@](O)(CO)[C@@H](C)C[C@H]3C)C[C@H]2C)CCC([C@@]2(C)CC[C@@]3(C[C@@H](O)[C@H](C)C([C@H](C)[C@H](OC)C(C)C(=O)O)O3)O2)O1` (stereo not given in full), the IFI was determined as 8.2%. `CN(C)c1ccc(/C=C2\SC(=Nc3ccc(O)cc3)NC2=O)cc1`: the IFI turned out to be 7.96%.

As for `CCOc1ccc(-n2cc(-c3ccccc3)c3c(SCc4cc(C)ccc4C)ncnc32)cc1`, the IFI is 0%. The value for `O=C1c2cc([N+](=O)[O-])ccc2-n2c1nc1ccccc1c2=O` was 4.54%; that for `CCOc1ccc(-c2nonc2NC(=O)c2ccco2)cc1OCC` was 0%. The value for `CCOC(=O)c1c(CNc2ccncc2)n(C)c2cc(Br)c(O)cc12` was 0%.

`O=C(CCCn1c(SCc2ccccc2F)nc2ccccc2c1=O)N1CCCC1`: the IFI came to 0%.

`N#Cc1c2c(c(N3CCN(c4ccccn4)CC3)n3c1nc1ccccc13)CCC2`: the IFI was 2.33%.

As for `COc1ccc(C2=C(c3ccc(OC)cc3)C3(c4ccccc4)C(=O)C2(c2ccccc2)C2C(=O)N(c4ccc(OC)cc4[N+](=O)[O-])C(=O)C23)cc1` (stereo not given), the IFI came out at 0.73%.

For the molecule `C[n+]1c(-c2ccccc2)cc(-c2ccccc2)cc1-c1ccccc1`, the IFI came out at 2.53%. The molecule `CC[n+]1c(/C=C2\Sc3ccc(C)cc3N2CCO)ccc2ccccc21` registered an IFI of 15.4%. The molecule `CCC(=O)N(C1=C(NC)C(=O)c2ccccc2C1=O)C(C)C` returned an IFI of 0%. With `COc1ccccc1NC1=CC(=NS(=O)(=O)c2cccs2)c2ccccc2C1=O`, the IFI turned out to be 7.69%.

In the case of `COc1ccc(OC)c(-c2ccc(O)c(CN3CCCC(C)C3)c2)c1` (stereo not given), the IFI turned out to be 1.72%.

In turn, `Cc1ccc(C(=O)Nc2ccc(-c3nc4ccc(NC(=O)c5ccc(C)cc5)cc4[nH]3)cc2)cc1` came in with an IFI of 17.4%. To `OC1=C2C(=Nc3ccccc3SC2c2ccc(Br)cc2)c2ccccc21` (stereo not given) belongs 1.07%; to `CCOC(=O)C1=C(C)NC2=C(C(=O)C(C(=O)OC)C(C)C2)C1c1cc(Br)c(OCC)c(OC)c1` (stereo not given), 5.81%; to `CCCCCCCSc1c(O)c2ccc(Cl)cc2[nH]c1=O`, 0%. As for `O=C(Cc1ccccc1)NCc1nnc(SCC(=O)N2N=C(c3cccs3)CC2c2ccc(F)cc2)n1Cc1ccccc1` (stereo not given), the IFI turned out to be 2.41%. For the molecule `CCN1CCN(C/C=C/c2ccccc2[N+](=O)[O-])CC1`, the IFI turned out to be 0%. The value for `COC(=O)[C@@H]1C[C@@H](NC(=O)c2ccc(OC)cc2OC)CN1Cc1ccc(C(F)(F)F)cc1` was 3.48%; that for `CCN1CCN(c2cc(C)c3cc(NC(=O)c4ccc(F)c([N+](=O)[O-])c4)ccc3n2)CC1` was 6.67%. The value for `COc1ccc(CCn2c(SCC(=O)N3CCN(c4ccccc4OC)CC3)nc3ccccc3c2=O)cc1OC` was 1.19%. For the molecule `CN1CCN(c2cc(-c3cccnc3)nc(-c3ccncc3)n2)CC1`, the IFI came out at 0%.

As to `Cc1ccc(O)c(NC(=O)c2cnn3c(C(F)(F)F)cc(-c4ccc(F)cc4)nc23)c1`, the IFI amounted to 2.27%.

In the case of `CCCCCN(CC(=O)Nc1cc(C(C)(C)C)nn1-c1ccc(Cl)c(Cl)c1)C(=O)c1ccc2c(c1)OCO2`, the IFI came out at 1.89%. `CCCCN(C)Cc1ccc2c(NC(=O)c3ccc(C)s3)c(C(=O)OC)sc2n1` came in with an IFI of 1.72%. The value for `COc1ccc(C=NNc2nc(O)cc(-c3ccccc3)n2)cc1OC` was 0%. The value for `CCC(Cc1cnc2nc(N)nc(N)c2n1)c1ccc(C(=O)N[C@@H](CCC(=O)O)C(=O)O)cc1` (stereo not given in full) was 17.9%. As for `CCCCNC(=O)N(CCCC(C)Nc1cc(OC)cc2cccnc12)Cc1ccc(OC)c(OC)c1` (stereo not given), the IFI was found to be 2.86%. To `CCN(CC)C(=O)COc1ccc(-c2nnc(N3CCCCC3)c3ccccc23)cc1` belongs 3.08%. The molecule `Cc1c(Cl)cccc1NCC(=O)NN=C1CCCC1` showed an IFI of 0%. On to `COc1cc2c(cc1OC)C1=NC(=O)C(C(C)C)N1C(SCc1csc(Cl)n1)=N2` (stereo not given), for which the IFI amounted to 3.66%. The molecule `CN(Cc1cc2ccc(F)cc2n(CCN2CCCCC2)c1=O)CC1COCCO1` (stereo not given) returned an IFI of 1.96%. Molecule `CC(=O)N(C1=C(N2CCCCC2)C(=O)c2ccccc2C1=O)c1ccc(F)cc1` registered an IFI of 8%. The value for `O=C(c1ccco1)N1CCN(c2ccc([N+](=O)[O-])c(NC3CC3)c2)CC1` was 1.21%; that for `CCOc1ccc(C(=O)Cn2ccc(=NCc3ccccc3)cc2)cc1[N+](=O)[O-]` was 0%; that for `C=CCOc1c(Br)cc(C=c2sc3n(c2=O)C(c2ccc(OC)c(OC)c2)C(C(=O)OCC)=C(C)N=3)cc1OC` (stereo not given) was 1.46%. To `CCN(CC)CCCC(C)NC(=O)CSc1nc2ccccc2c(=O)n1-c1cccc(Cl)c1` (stereo not given) belongs 3.67%.

`CC(=O)N(C1=C(N2CCOCC2)C(=O)c2ccccc2C1=O)c1ccc(Br)cc1` gave an IFI of 0%.

`CCCCc1nc(CN2CCC3(CC2)C(=O)N(CCc2ccccc2)C(=O)N3C)c[nH]1` yielded an IFI of 10%.

Consider `COc1cc(C(=O)ON=C(N)Cc2cccc3ccccc23)cc(OC)c1OC`, for which the IFI is 0%.

Consider `COC(=O)c1cnn(-c2ccccc2)c1C=NOC(=O)c1ccccc1`, for which the IFI stood at 1.07%. To `O=C(O)c1ccc2c(c1)N=CN(C1CCCCC1)C2` belongs 1.25%; to `CCNC(=O)/C=C/c1ccc(C(C)(C)C)cc1`, 0%; to `CC(C)(C)c1ccc(C(=O)NCCCCNc2ccnc3cc(Cl)ccc23)cc1`, 3.19%. Molecule `Oc1ccc(-c2ccc3c(c2)OCO3)cc1CNCC1(N2CCCCC2)CCCCC1` registered an IFI of 0.855%. As for `Cc1ccc(OCC(=O)Nc2cccc(-c3nc4ncccc4o3)c2)cc1C`, the IFI was 0%. In turn, `COCCOC(=O)C1=C(C)NC2=C(C(=O)CC(c3ccc(OC)c(OC)c3)C2)C1c1ccc(F)cc1` (stereo not given) registered an IFI of 7.32%.

In turn, `CN(C)CCCNc1c2ccccc2nc2ccccc12` returned an IFI of 0%.

The molecule `CCN1C(=O)c2ccccc2Sc2ccc(NC(=O)NCCCOC(C)C)cc21` had an IFI of 2.38%.

For `CN(C)CCn1cnc2sc3c(c2c1=O)CCC(NCc1cccc(Cl)c1)C3` (stereo not given), the IFI was determined as 1.96%. The value for `Cc1nc2ncccn2c1-c1csc(Nc2ccccn2)n1` was 0%.

Values taken from ChEMBL document CHEMBL1156829.
